Test results: article PMC4336329 (PLoS ONE, 2015)
The whole screen tested about 310,000 compounds, of which about 14,000 (4.5%) showed an effect of 50% or more. The effect is printed as a negative number. This is one part of the list.

Each molecule was assayed against human ether-à-go-go-related gene (hERG) potassium channel (human, UniProt Q12809) (assay: primary screen, population patch clamp on CHO cells stably expressing hERG).
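Further: peak tail current of the secondary pulse compared with the same well before compound.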

Chain of human ether-à-go-go-related gene (hERG) potassium channel (Q12809 whole entry, looked up): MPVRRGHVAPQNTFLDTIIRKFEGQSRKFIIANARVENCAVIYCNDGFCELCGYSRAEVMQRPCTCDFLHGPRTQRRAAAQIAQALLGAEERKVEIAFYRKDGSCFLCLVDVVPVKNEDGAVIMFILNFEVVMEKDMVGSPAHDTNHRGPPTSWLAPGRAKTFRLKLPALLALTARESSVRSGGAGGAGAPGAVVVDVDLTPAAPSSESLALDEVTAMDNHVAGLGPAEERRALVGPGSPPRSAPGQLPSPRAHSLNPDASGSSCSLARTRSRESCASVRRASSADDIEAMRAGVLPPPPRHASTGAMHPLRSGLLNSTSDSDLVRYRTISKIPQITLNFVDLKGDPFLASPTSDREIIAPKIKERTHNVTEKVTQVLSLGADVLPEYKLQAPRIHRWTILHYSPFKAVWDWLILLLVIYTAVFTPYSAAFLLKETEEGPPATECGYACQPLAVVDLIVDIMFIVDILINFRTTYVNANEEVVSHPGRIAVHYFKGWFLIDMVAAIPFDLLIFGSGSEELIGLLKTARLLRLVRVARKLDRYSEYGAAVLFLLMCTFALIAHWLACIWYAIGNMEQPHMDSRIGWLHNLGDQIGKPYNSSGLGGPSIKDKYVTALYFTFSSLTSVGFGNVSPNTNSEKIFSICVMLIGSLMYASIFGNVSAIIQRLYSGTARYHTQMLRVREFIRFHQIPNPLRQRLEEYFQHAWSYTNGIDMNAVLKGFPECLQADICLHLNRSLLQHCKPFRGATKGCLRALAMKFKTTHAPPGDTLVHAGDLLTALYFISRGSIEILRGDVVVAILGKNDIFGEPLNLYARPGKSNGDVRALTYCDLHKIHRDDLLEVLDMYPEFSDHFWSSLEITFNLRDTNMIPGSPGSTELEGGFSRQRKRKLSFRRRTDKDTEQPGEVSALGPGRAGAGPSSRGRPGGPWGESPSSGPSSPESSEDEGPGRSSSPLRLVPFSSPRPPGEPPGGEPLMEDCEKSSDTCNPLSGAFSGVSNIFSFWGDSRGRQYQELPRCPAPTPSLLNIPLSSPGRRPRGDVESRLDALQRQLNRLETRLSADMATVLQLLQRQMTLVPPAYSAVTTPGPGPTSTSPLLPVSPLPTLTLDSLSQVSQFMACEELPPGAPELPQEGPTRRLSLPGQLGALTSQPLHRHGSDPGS

Question: How did the “hERG current change (%, negative = inhibition) at 10uM” value turn out when `O=C(Cc1ccccc1)NCCc1cn2ccsc2n1` was run?
Answer: Its value is 22%.

Question: How did the “hERG current change (%, negative = inhibition) at 10uM” value turn out when `CCOC(=O)Cn1c(=NC(=O)CSC(C)=O)sc2ccccc21` was run?
Answer: Its value is -44.3%.

Question: `Cn1cccc1C(=O)OCc1ccc(C(C)(C)C)cc1` was tested. Which “hERG current change (%, negative = inhibition) at 10uM” value did it give?
Answer: Its value is 10.6%.

Question: For `O=C1C=C(c2ccc3ccccc3c2)C[C@@H](c2ccc(Cl)cc2)C1`, which “hERG current change (%, negative = inhibition) at 10uM” value is on record?
Answer: The value was 12.4%.

Question: `Cn1cc(CCC(=O)N2CCCC(CCC(=O)NCc3ccc(F)c(F)c3)C2)cn1` (stereo not drawn) was tested. Which “hERG current change (%, negative = inhibition) at 10uM” value did it give?
Answer: The value was -10.8%.

Question: `O=C(COc1ccccc1)Nc1cccc(-c2nn[nH]n2)c1` was tested. Which “hERG current change (%, negative = inhibition) at 10uM” value did it give?
Answer: The value was 7.2%.

Question: With `CCCCOP(=O)(c1ccc(N(C)C)cc1)C(O)c1ccncc1` (stereo not drawn) as the molecule, how does the “hERG current change (%, negative = inhibition) at 10uM” value read?
Answer: Its value is -1.72%.

Question: For `CCN(CC)CCNCc1cc(Cl)c(OCC(=O)Nc2ccccc2)c(OC)c1.Cl`, which “hERG current change (%, negative = inhibition) at 10uM” value is on record?
Answer: The value was -62.5%.

Question: Which “hERG current change (%, negative = inhibition) at 10uM” value does the source give for `COc1ccc(C2NCCn3cccc32)cc1.O=C(O)/C=C\C(=O)O` (stereo not drawn) here?
Answer: The value was -10.9%.

Question: `Cc1cc(NC(=O)CN2CCc3ccccc3C2)nc2c1c(=O)oc1ccccc12` was tested. Which “hERG current change (%, negative = inhibition) at 10uM” value did it give?
Answer: Its value is 11%.

Question: Which “hERG current change (%, negative = inhibition) at 10uM” value does the source give for `Cc1cc(=O)[nH]c(SCc2nc3ccc([N+](=O)[O-])cc3[nH]2)n1` here?
Answer: The value was 9.36%.

Question: Which “hERG current change (%, negative = inhibition) at 10uM” value does the source give for `CCOc1ccc(N=C2NC(=O)C(CC(=O)O)S2)cc1` (stereo not drawn) here?
Answer: Its value is -2.78%.

Question: Which “hERG current change (%, negative = inhibition) at 10uM” value does the source give for `CN1C(=O)CC(N2CCN(c3ccccn3)CC2)C1=O` (stereo not drawn) here?
Answer: Its value is 1.46%.

Question: `Cc1noc(C)c1C(=O)NCCc1ccc(Cl)cc1` was tested. Which “hERG current change (%, negative = inhibition) at 10uM” value did it give?
Answer: The value was -1.59%.

Question: For `CCCCN(C(=O)CSc1nnc(Nc2ccccc2)s1)c1c(N)n(CCC)c(=O)[nH]c1=O`, which “hERG current change (%, negative = inhibition) at 10uM” value is on record?
Answer: The value was 26.9%.

Question: For `CCOc1ccccc1NC(=O)c1ccccc1NC(=O)c1ccco1`, which “hERG current change (%, negative = inhibition) at 10uM” value is on record?
Answer: The value was -2.4%.

Question: `CCCc1c(CC)c(=N)c2ccccc2n1C.I` was tested. Which “hERG current change (%, negative = inhibition) at 10uM” value did it give?
Answer: The value was -6.91%.

Question: How did the “hERG current change (%, negative = inhibition) at 10uM” value turn out when `O=C(c1ccco1)N1CCN(c2ccc([N+](=O)[O-])cc2F)CC1` was run?
Answer: The value was -64.9%.

Question: Which “hERG current change (%, negative = inhibition) at 10uM” value does the source give for `CCSc1nnc(NC(=O)c2ccc(S(=O)(=O)N(C)C)cc2)s1` here?
Answer: Its value is 17%.

Question: How did the “hERG current change (%, negative = inhibition) at 10uM” value turn out when `CC(O)CNc1nc2c(c(=O)n(Cc3ccccc3)c(=O)n2C)n1C` (stereo not drawn) was run?
Answer: Its value is 12.6%.

Question: With `O=C(Nc1nnc(S(=O)(=O)N2CCCC2)s1)c1ccccc1Cl` as the molecule, how does the “hERG current change (%, negative = inhibition) at 10uM” value read?
Answer: The value was -10.7%.

Question: With `COc1ccc(N2CCN(C(=S)Nc3ccc(S(N)(=O)=O)cc3)CC2)cc1` as the molecule, how does the “hERG current change (%, negative = inhibition) at 10uM” value read?
Answer: The value was 19.4%.

Question: For `O=c1nc(N2CCOCC2)ccn1-c1nc(-c2ccccc2)oc1-c1ccccc1`, which “hERG current change (%, negative = inhibition) at 10uM” value is on record?
Answer: The value was -9.71%.

Question: Which “hERG current change (%, negative = inhibition) at 10uM” value does the source give for `Cl.O=C(NCCCCNC(=O)c1cccnc1)c1cccnc1` here?
Answer: Its value is -3.2%.

Question: With `Cc1ccc(NC(=O)CSc2nccn2C)cc1F` as the molecule, how does the “hERG current change (%, negative = inhibition) at 10uM” value read?
Answer: Its value is 3.62%.

Question: Which “hERG current change (%, negative = inhibition) at 10uM” value does the source give for `Cc1ccc(Sc2ccc(NC(=O)CCN3C(=O)NC4(CCCC4)C3=O)cc2)c(C)c1` here?
Answer: Its value is -16%.

Question: Which “hERG current change (%, negative = inhibition) at 10uM” value does the source give for `Cc1c(Cl)cccc1NC(=O)CSc1ncnc2c1cnn2CCO` here?
Answer: Its value is 10.9%.

Question: `O=C(NC(Cc1ccccc1)C(=O)O)/C(=C\c1ccc([N+](=O)[O-])cc1)NC(=O)c1ccco1` (stereo not drawn) was tested. Which “hERG current change (%, negative = inhibition) at 10uM” value did it give?
Answer: Its value is 26.4%.

Question: `O=C(CN1CCCCC1)N1CCc2ccccc21` was tested. Which “hERG current change (%, negative = inhibition) at 10uM” value did it give?
Answer: Its value is -6%.

Question: `O=C(N1CCOCC1)n1nnc2ccccc21` was tested. Which “hERG current change (%, negative = inhibition) at 10uM” value did it give?
Answer: Its value is 15.8%.

Question: `CC(C)N(Cc1nccn1C)C(=O)CC1C(=O)NCCN1Cc1ccc(F)c(F)c1` (stereo not drawn) was tested. Which “hERG current change (%, negative = inhibition) at 10uM” value did it give?
Answer: Its value is 7.21%.

Question: `Cc1ccc(-c2nc3ccccc3o2)cc1NC(=S)NC(=O)c1cccs1` was tested. Which “hERG current change (%, negative = inhibition) at 10uM” value did it give?
Answer: The value was 13.5%.

Question: How did the “hERG current change (%, negative = inhibition) at 10uM” value turn out when `CCC1Oc2ccccc2N(CC(=O)Nc2ccc3c(c2)OCCO3)C1=O` (stereo not drawn) was run?
Answer: Its value is 5.59%.

Question: Which “hERG current change (%, negative = inhibition) at 10uM” value does the source give for `O=C(Cc1ccccc1)NCCc1ccc(Cl)cc1Cl` here?
Answer: Its value is -19.6%.

Question: How did the “hERG current change (%, negative = inhibition) at 10uM” value turn out when `CCCC[C@@H]1C[C@H]1[C@@H](NC(=O)c1ccco1)c1ccccc1C(F)(F)F` was run?
Answer: The value was 6.62%.

Question: `CC(=O)N1c2ccc(S(=O)(=O)N3CCOCC3)cc2CC1C` (stereo not drawn) was tested. Which “hERG current change (%, negative = inhibition) at 10uM” value did it give?
Answer: Its value is 0.69%.

Question: For `COc1ccc(CNC(=O)C2CCCN(S(=O)(=O)c3ccc4c(c3)CCCN4C(C)=O)C2)cc1` (stereo not drawn), which “hERG current change (%, negative = inhibition) at 10uM” value is on record?
Answer: The value was 4.76%.

Question: `O=C(O)c1ccccc1-c1ccccc1C(=O)Nc1ccccc1` was tested. Which “hERG current change (%, negative = inhibition) at 10uM” value did it give?
Answer: Its value is 8.38%.

Question: Which “hERG current change (%, negative = inhibition) at 10uM” value does the source give for `COc1ccccc1S(=O)(=O)Cc1ccc(C(=O)NCC(OC)OC)o1` here?
Answer: The value was 15.9%.

Question: Which “hERG current change (%, negative = inhibition) at 10uM” value does the source give for `COc1ccc(NC(=O)Nc2cccc3cccnc23)cc1` here?
Answer: The value was -17.4%.

Question: `CCN1CCN(C(=O)Nc2ccc(OC)cc2OC)CC1` was tested. Which “hERG current change (%, negative = inhibition) at 10uM” value did it give?
Answer: The value was 9.38%.

Question: With `COc1ccc([N+](=O)[O-])cc1Nc1c2ccccc2nc2ccccc12` as the molecule, how does the “hERG current change (%, negative = inhibition) at 10uM” value read?
Answer: Its value is 9.54%.

Question: With `COc1ccc(CC(=O)Nc2ccc3c(C(F)(F)F)cc(=O)oc3c2)cc1OC` as the molecule, how does the “hERG current change (%, negative = inhibition) at 10uM” value read?
Answer: Its value is -18.4%.

Question: Which “hERG current change (%, negative = inhibition) at 10uM” value does the source give for `COc1cc(C(=O)Nc2ccc3nc4n(c(=O)c3c2)CCCCC4)cc(OC)c1OC` here?
Answer: The value was -67.7%.

Question: How did the “hERG current change (%, negative = inhibition) at 10uM” value turn out when `NC(=O)c1nsc(C(=O)N(Cc2ccc(F)cc2)C(C(=O)NC2CCCC2)c2ccco2)c1N` (stereo not drawn) was run?
Answer: Its value is -10.5%.
